target: T1, Serine/threonine-protein kinase Chk1 (Homo sapiens, UniProt O14757)
T1 sequence (O14757 whole entry): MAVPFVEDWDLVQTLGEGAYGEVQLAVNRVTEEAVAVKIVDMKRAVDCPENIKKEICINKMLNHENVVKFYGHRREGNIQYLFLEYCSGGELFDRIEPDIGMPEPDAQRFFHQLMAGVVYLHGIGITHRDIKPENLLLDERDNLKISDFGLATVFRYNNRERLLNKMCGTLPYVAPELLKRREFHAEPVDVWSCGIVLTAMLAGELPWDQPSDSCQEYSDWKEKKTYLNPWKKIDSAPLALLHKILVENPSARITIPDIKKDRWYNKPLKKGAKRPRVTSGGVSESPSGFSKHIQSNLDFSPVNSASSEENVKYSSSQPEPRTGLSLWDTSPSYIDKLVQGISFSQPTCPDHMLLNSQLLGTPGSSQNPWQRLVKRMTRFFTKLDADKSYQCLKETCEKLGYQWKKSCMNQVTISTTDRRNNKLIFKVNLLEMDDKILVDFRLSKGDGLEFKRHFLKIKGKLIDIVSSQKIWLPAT

| SMILES | IC50 [nM] |
| --- | --- |
| CS(=O)(=O)NC(=O)CCn1c2ccc(O)cc2c2c3c(c(-c4ccccc4Cl)cc21)C(=O)NC3=O | 2500 |
| CN(C)CCn1c2ccc(O)cc2c2c3c(c(-c4c(Cl)cccc4Cl)cc21)C(=O)NC3=O | 850 |
| O=C1NC(=O)c2c1c(-c1ccccc1)cc1c2c2cc(O)ccc2n1CCCO | 59 |
| CN(C)CCCn1c2ccc(O)cc2c2c3c(c(-c4ccccc4)cc21)C(=O)NC3=O | 21 |
| O=C1NC(=O)c2c1c(-c1c(Cl)cccc1Cl)cc1c2c2cc(O)ccc2n1CCCn1ccnc1 | 1300 |
| O=C1NC(=O)c2c1c(-c1ccccc1Cl)cc1c2c2cc(O)ccc2n1CC[S+]([O-])c1nnc[nH]1 (centres undefined) | 120 |
| O=C1NC(=O)c2c1c(-c1c(Cl)cccc1Cl)cc1c2c2cc(O)ccc2n1CCCNc1ccccc1 | 730 |
| O=C1NC(=O)c2c1c(-c1ccccc1Cl)cc1c2c2cc(O)ccc2n1CCSc1nnc[nH]1 | 420 |
| O=C(O)CCn1c2ccc(O)cc2c2c3c(c(-c4c(Cl)cccc4Cl)cc21)C(=O)NC3=O | > 10000 |
| O=C1NC(=O)c2c1c(-c1ccccc1)cc1c2c2cc(O)ccc2n1CCCNc1ccccc1 | 210 |
| O=C1NC(=O)c2c1c(-c1ccccc1)cc1c2c2cc(O)ccc2n1CCCn1ccnc1 | 36 |
| NC(=O)CCn1c2ccc(O)cc2c2c3c(c(-c4ccccc4Cl)cc21)C(=O)NC3=O | 54 |
| O=C1NC(=O)c2c1c(-c1c(Cl)cccc1Cl)cc1c2c2cc(O)ccc2n1CCn1ccnc1 | 3400 |
| CNCCCn1c2ccc(O)cc2c2c3c(c(-c4c(Cl)cccc4Cl)cc21)C(=O)NC3=O | 5 |
| O=C(CCn1c2ccc(O)cc2c2c3c(c(-c4ccccc4Cl)cc21)C(=O)NC3=O)NS(=O)(=O)c1ccccc1 | 8000 |
| O=C1NC(=O)c2c1c(-c1ccccc1Cl)cc1c2c2cc(O)ccc2n1CCCn1ccnc1 | 55 |
| CN(C)CC(O)Cn1c2ccc(O)cc2c2c3c(c(-c4ccccc4Cl)cc21)C(=O)NC3=O (centres undefined) | 30 |
| CN(C)CCCn1c2ccc(O)cc2c2c3c(c(-c4c(Cl)cccc4Cl)cc21)C(=O)NC3=O | 96 |
| O=C1NC(=O)c2c1c(-c1ccccc1Cl)cc1c2c2cc(O)ccc2n1CCn1ccnc1 | 270 |
| O=C1NC(=O)c2c1c(-c1c(Cl)cccc1Cl)cc1c2c2cc(O)ccc2n1CCCO | 410 |

| SMILES | IC50 [nM] |
| --- | --- |
| O=C1NC(=O)c2c1c(-c1ccccc1)cc1c2c2cc(O)ccc2n1CCn1ccnc1 | 250 |
| CN(C)CCn1c2ccc(O)cc2c2c3c(c(-c4ccccc4Cl)cc21)C(=O)NC3=O | 110 |
| O=C1NC(=O)c2c1c(-c1ccccc1Cl)cc1c2c2cc(O)ccc2n1CCS(=O)(=O)c1nnc[nH]1 | 77 |
| CN(C)CCn1c2ccc(O)cc2c2c3c(c(-c4ccccc4)cc21)C(=O)NC3=O | 54 |
| O=C(O)CCn1c2ccc(O)cc2c2c3c(c(-c4ccccc4)cc21)C(=O)NC3=O | 410 |
| NC(=O)CCn1c2ccc(O)cc2c2c3c(c(-c4ccccc4)cc21)C(=O)NC3=O | 35 |
| CNCC(O)Cn1c2ccc(O)cc2c2c3c(c(-c4ccccc4Cl)cc21)C(=O)NC3=O (centres undefined) | 3 |
| O=C1NC(=O)c2c1c(-c1ccccc1)cc1c2c2cc(O)ccc2n1CCO | 88 |
| O=C1NC(=O)c2c1c(-c1ccccc1Cl)cc1c2c2cc(O)ccc2n1CCCNc1ccccc1 | 4700 |
| O=C1NC(=O)c2c1c(-c1ccccc1Cl)cc1c2c2cc(O)ccc2n1CCCc1nnn[nH]1 | 630 |
| CN1CCN(CCCn2c3ccc(O)cc3c3c4c(c(-c5ccccc5)cc32)C(=O)NC4=O)CC1 | 200 |
| CNCCCn1c2ccc(O)cc2c2c3c(c(-c4ccccc4)cc21)C(=O)NC3=O | 2 |
| COC(=O)CCn1c2ccc(O)cc2c2c3c(c(-c4ccccc4Cl)cc21)C(=O)NC3=O | 200 |
| CN(C)CCNC(=O)CCn1c2ccc(O)cc2c2c3c(c(-c4ccccc4Cl)cc21)C(=O)NC3=O | 53 |
| CN(C)CCNC(=O)CCn1c2ccc(O)cc2c2c3c(c(-c4c(Cl)cccc4Cl)cc21)C(=O)NC3=O | 750 |
| N#CCCn1c2ccc(O)cc2c2c3c(c(-c4ccccc4Cl)cc21)C(=O)NC3=O | 200 |
| O=C1NC(=O)c2c1c(-c1ccccc1Cl)cc1c2c2cc(O)ccc2n1CC(O)CO (centres undefined) | 77 |
| NC(=O)CCn1c2ccc(O)cc2c2c3c(c(-c4c(Cl)cccc4Cl)cc21)C(=O)NC3=O | 360 |
| O=C1NC(=O)c2c1c(-c1ccccc1Cl)cc1c2c2cc(O)ccc2n1CCc1nnn[nH]1 | 1400 |
